Hit rate of the full screen: of about 46,000 compounds, about 60 (0.1%) were called active. Another 3% or so got no clear call; they are omitted. Calls follow the shape of the dose curve; as a rule, active = well fitted inhibition curve with a large enough effect; inconclusive = small, poorly fitted or top-dose-only effect; inactive = no such curve, though single readings can be large or run the other way. This is one part of the list.
Test: Primary qHTS assay for Inhibitors of ovarian cancer metastasis using an organotypic tumor microenvironment (TME) model. Also: nearly all actives have a fitted effect of over 65% in size.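 As to activity change, negative = inhibition: plate controls were DMSO wells for no effect and tomatine positive control wells for full effect.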
Conditions: SKOV3ip1-GFP adhesion/invasion on 3D omental model, fluorescence; series mostly up to 45.8 µM; activity change, negative = inhibition: at the top concentration
In short: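 Adhesion/invasion was scored as fixed GFP-labeled SKOV3ip1 cell counts (488/509 nm), normalized to DMSO and tomatine controls. Cancer cells in serum-free medium, with four compound doses (0.36-46 umol/L), sat 2 hr at RT then 16 hr at 37 C on a 48 hr fibroblast/mesothelial/ECM culture.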

outcome, inactive:
COc1ccc(CCNS(=O)(=O)c2cc(-c3cc(C)no3)ccc2C)cc1OC
Cc1ccc(-n2c(-c3ccco3)nc3c(cnn3-c3ccccc3Cl)c2=O)cc1
Cc1cccc(C(=O)Nc2nnc(S(=O)(=O)N(C)c3ccccc3C)s2)c1
CCN(C(=O)CSc1nc(-c2ccc(C(C)C)cc2)no1)c1cccc(C)c1
CSc1ccc(C2c3c(oc4cc(C)cc(C)c4c3=O)C(=O)N2Cc2ccco2)cc1 (stereo not given)
Cc1cc(C)cc(OC(C)C(=O)Nc2c(C(=O)c3ccccc3)oc3ccccc23)c1 (stereo not given)
CCOC(=O)c1cc(OC(=O)c2ccccc2C)n(-c2ccccc2)n1
COc1ccc(C(=O)Nc2ccc(-n3nncc3-c3ccccc3)cc2)cc1OC
Cc1ccc(-n2nc(CO)c(C(=O)NCc3cccnc3)n2)cc1
COc1ccc(OC)c(CNC(=O)C2CCN(c3nc4ccccc4nc3C(F)(F)F)CC2)c1
CCCCc1c(C)nc2c(-c3ccc(OC)cc3)c(C)[nH]n2c1=O
COc1ccccc1NC(=O)CSc1ncc2c(n1)-c1cc(Cl)ccc1N(Cc1ccccc1)S2(=O)=O
Cc1ccc(OCC(=O)Nc2ccc3nc(SCC(=O)N4CCOCC4)sc3c2)cc1
O=C(C1CCN(S(=O)(=O)Cc2ccccc2)CC1)N1CCN(c2ccccc2)CC1
CCOC(=O)c1cccc(NS(=O)(=O)c2ccc(-c3cnc(C4CC4)o3)cc2)c1
CCOC(=O)c1cccc(NC(=O)c2cc3c(-c4cccc(OC)c4)nn(C)c3s2)c1
COc1cc(NC(=O)CSc2nc3ccccc3nc2Cc2ccc(Cl)cc2)cc(OC)c1
Cc1nn(C)c2c1c(-c1ccccc1)cc(=O)n2CC(=O)Nc1ccccc1C(F)(F)F
COc1cccc(Nc2cc(C)nc3nc(-c4ccc(Cl)cc4)nn23)c1
COc1ccc2c(c1)CC(C(=O)Nc1cc(Cl)ccc1C)CO2 (stereo not given)
CCc1ccc(CNC(=O)C2Cc3cc(S(=O)(=O)N4CCCCCC4)ccc3N2C(C)=O)cc1 (stereo not given)
Cc1cn2c(=O)cc(COc3ccc(Cl)cc3)nc2s1
COc1cccc(C2CC(=O)N(c3ccc(F)cc3)C3=C2C(=O)OC3)c1OC (stereo not given)
Cc1ccc(OCC(=O)Nc2ccc(Cl)c(-c3nc4ncccc4o3)c2)c(C)c1
Cc1cccc(NC(=O)C2CCC(CNS(=O)(=O)c3ccc(Br)s3)CC2)c1 (stereo not given)
COc1cc(C2c3c(oc4ccccc4c3=O)C(=O)N2c2ccccn2)cc(OC)c1OC (stereo not given)
CCCc1nn2c(=O)cc(COC(=O)c3ccccc3NC(=O)c3cccs3)nc2s1
O=C(Nc1c(C(=O)Nc2ccc(F)cc2)oc2ccccc12)c1ccccc1F
Cc1nc2nc(SCC(=O)NCCc3ccccc3)nn2c(C)c1Cc1c(F)cccc1Cl
CCOc1ccccc1C(=O)Nc1ccc2c(c1)N(C)C(=O)c1ccccc1S2
CCCSc1ncc(Cl)c(C(=O)Nc2sc3c(c2C(=O)NCCOC)CCCC3)n1
Cc1c(Cl)cccc1NC(=O)CSc1nc(=O)n(Cc2ccccn2)c2c1CCC2
COc1ccc(N(CC(=O)N2CCN(c3cccc(C)c3C)CC2)S(=O)(=O)c2c(C)noc2C)cc1

Activity change, negative = inhibition, inactive:
COc1ccc(OC)c(NS(=O)(=O)c2ccc(-c3cc(C)no3)s2)c1 -28.5%
COc1ccc(CNC(=O)CCCn2nc(C)c3c(C)n(-c4ccccc4)nc3c2=O)cc1 -8%
CN(C)Cc1ccc(-c2nc3cccc4c3n2CCNC4=O)cc1 2.56%
CCCN(CCC)S(=O)(=O)c1ccc(C(=O)Nc2sc3c(c2C(=O)OC)CCN(CC)C3)cc1 -6.69%
O=C(Nc1cccc(C(F)(F)F)c1)C1CCCN1S(=O)(=O)c1cccc2nsnc12 (stereo not given) 0.52%
c1ccc(CSc2nc3ncccc3[nH]2)cc1 4.34%
Cc1ccc(CCNC(=O)c2ccc3c(c2)N(Cc2cccc(Cl)c2)C(=O)c2ccccc2S3(=O)=O)cc1 -5.39%
COc1ccc(-n2nc(C)c3c(C(F)(F)F)cc(-c4cccnc4)nc32)cc1 -4.5%
Cc1cn2c(=O)cc(COC(=O)c3cccc(NC(=O)c4ccccc4C)c3)nc2s1 18.9%
COc1ccc(C(=O)COC(=O)C(Cc2c[nH]c3ccccc23)NC(=O)c2ccc(C(C)(C)C)cc2)cc1 (stereo not given) -1.25%
O=C1c2[nH]nc(-c3ccccc3O)c2C(c2cccc(OCc3ccccc3)c2)N1CCO (stereo not given) -4.02%
COc1ccc(CCNC(=O)C(=O)NCC(c2cccs2)S(=O)(=O)c2ccc(C)cc2)cc1 (stereo not given) -8.15%
CCN(CC)C(=O)Cn1c(=O)n(-c2ccc(Cl)cc2)c(=O)c2c3c(sc21)CCC3 1.16%
CCOC(=O)c1c(C)[nH]c(C)c1S(=O)(=O)N1CCN(c2cccc(C(F)(F)F)c2)CC1 -7.76%
Cc1ccc(S(=O)(=O)N2CCC(C(=O)Nc3ccc(C)c(Cl)c3)CC2)cc1 -13.4%
COc1cccc(N2CCN(C(=O)CCS(=O)(=O)c3ccc4c(c3)oc(=O)n4C)CC2)c1 8.42%
COCCCNC(=O)C1CCN(c2nc3ccc(C)cc3[nH]2)CC1 -11.5%
CC1(C)NC(=O)N(c2ccc([N+](=O)[O-])c(C(F)(F)F)c2)C1=O -0.199%
Cc1cc2oc(=O)cc(C)c2c2occ(-c3ccc(Cl)cc3)c12 2.64%
Cc1cccc(N2CCN(C(=O)Cn3ncc4c5ccccc5n(C)c4c3=O)CC2)c1C 6.26%
COc1cc(OC)cc(-c2cc3nc(C)c(CCC(=O)NCc4ccc(Cl)cc4)c(C)n3n2)c1 -1.54%
CCc1ccc(S(=O)(=O)c2cn(Cc3ccccc3)c3cc(F)c(F)cc3c2=O)cc1 5.7%
CCc1ccccc1Nc1nc2ccccc2c2nncn12 2.3%
Cc1ccc2[nH]c3c(=O)n(CC(=O)N4CCCCC4)ncc3c2c1 12.1%
Clc1ccc(C(c2ccccc2)c2c[nH]c3ccccc23)s1 (stereo not given) 6.11%
CCCCNC(=O)CCCn1c(=O)c2ccccc2n(Cc2cccc(Cl)c2)c1=O 6.15%
Cn1c(CN2CCCCC2)nc2cc(NC(=O)c3ccccc3Cl)ccc21 -10.3%
NC(=O)c1nc(Nc2ccccc2)sc1NC(=O)c1ccccc1Br 20.5%
O=C(NC1CCCC1)c1cc(Nc2cccc(C(F)(F)F)c2)nc2ccccc12 -6.4%
CCC(=O)N1CCc2cc(Br)cc(S(=O)(=O)CCC(=O)N3CCN(c4ccccc4F)CC3)c21 7.32%
COc1ccc2nc(NC(=O)c3nc(SC(C)C)ncc3Cl)sc2c1 -14.7%
Cc1cccc(NC(=O)C2CCC(CNS(=O)(=O)c3csc(C(N)=O)c3)CC2)c1C (stereo not given) 9.02%
Cc1ccc(S(=O)(=O)c2nc(S(C)(=O)=O)sc2N(C)Cc2ccccc2)cc1 -4.32%
CC(C)(C)c1ccc(OCC(=O)Nc2ccc(S(=O)(=O)Nc3ncccn3)cc2)cc1 -6.39%
COCCCNC(=O)CSc1nc2c(sc3ccccc32)c(=O)n1CCc1ccccc1 -17%
Cc1nc2c(c(C)c1CCC(=O)NCc1ccccc1)c(=O)n(C)c(=O)n2C 3.95%
O=C(NCCCc1nc2ccccc2n1Cc1c(F)cccc1Cl)C1CCCCC1 5.96%
O=C(COc1ccccc1Cl)Nc1nnc(S(=O)(=O)N2CCCCCC2)s1 -2.6%
CCOC(=O)COc1ccccc1C1C(C(=O)OC)=C(C)NC2=C1C(=O)c1ccccc12 (stereo not given) 3.11%
COc1ccc(NCc2cc3cc4c(cc3n(CC(=O)Nc3cc(C)cc(C)c3)c2=O)OCO4)cc1 -17.6%
N#Cc1c(N)n(-c2cccc(Cl)c2)c2nc3ccccc3nc12 13%
Cc1nn2c(=O)cc(COc3ccc(/C=C(\C#N)C(=O)Nc4ccc(F)cc4)cc3)nc2s1 0.923%
CCOc1ccc(CNc2nc3nc(C)c(Cc4ccccc4)c(=O)n3[nH]2)cc1 -10.5%
CCOc1ccc(-n2c(=O)c3c(C)c(C)sc3n(CC(=O)N(CC)Cc3ccccc3)c2=O)cc1 2.87%
CCC(C)n1ncn(-c2ccc(N3CCN(c4ccc(OC[C@H]5CO[C@](Cn6cncn6)(c6ccc(Cl)cc6Cl)O5)cc4)CC3)cc2)c1=O (stereo not given in full) -1.22%
Cc1ccc(Cl)cc1NC(=O)Cc1ccc(-n2c(C)nc3cccnc32)cc1 3.1%
COc1cc(NC(=O)Nc2cccc(-c3noc(C)n3)c2)cc(OC)c1OC -8.24%
Cc1ccc(C)c(C(=O)c2c(N)c(-c3nc(-c4ccc5c(c4)OCO5)cs3)c3ccccn23)c1 4.94%
COc1ccc(N(Cc2cccs2)C(=O)c2ccc(OCC(C)C)cc2)cc1 -1.52%
Cn1c(=O)nc2n(-c3ccc(Cl)c(Cl)c3)c3cc(Cl)ccc3cc-2c1=O -10.1%
C[N+](C)([O-])CCNc1ccc(NCC[N+](C)(C)[O-])c2c1C(=O)c1c(O)ccc(O)c1C2=O -14.7%
Cc1ccc(C)c(NC(=O)CN2C(=O)COc3ccc(Cl)cc32)c1 -0.0812%
CC1=C(C(=O)OCC2CCCCC2)C(c2ccccc2F)CC(=O)N1 (stereo not given) 42.4%
Cc1ccc(C(C)C)c(OCC(=O)N2CCC(c3nc4ccccc4o3)CC2)c1 -5.81%
Cc1ccccc1CNS(=O)(=O)c1csc(C(N)=O)c1 56.6%
COc1ccc(C(=O)N(Cc2ccc(C(C)C)cc2)C2CCS(=O)(=O)C2)cc1 (stereo not given) -1.38%
Cc1c(C2=CCN(S(=O)(=O)c3ccc(CC(C)C)cc3)CC2)c2ccccc2n1CC(=O)N1CCCC1 1.58%
Cc1nn(-c2ccc(N3CCOCC3)nn2)c(C)c1CCC(=O)NCc1ccc(OC(C)C)cc1 9.02%
CCOc1ccc(NS(=O)(=O)c2ccc3[nH]c4c(c3c2)CCCC4)cc1 -2.1%
Cc1nn2c(=O)cc(COC(=O)c3cccc(NC(=O)c4cccs4)c3)nc2s1 -12.4%
Cc1cccc(N(C)S(=O)(=O)c2cc3c(cc2Cl)NC(=O)CO3)c1 22.7%
COc1ccc(-c2cn3nc(N4CCC(C(=O)Nc5cccc(C)c5C)CC4)sc3n2)cc1 4.61%
